Source: PubChem BioAssay AID1631 (National Center for Advancing Translational Sciences (NCATS), 2009)
The campaign covered roughly 260,000 compounds. About 890 (0.34%) were called active. Inconclusive means that the source gave no clear call. Such entries were picked first, then a sample of the others. Calls come from the whole dose curve; as a rule, active = well fitted activation curve with a large enough effect; inconclusive = small, poorly fitted or top-dose-only effect; inactive = no such curve, though single readings can be large or run the other way. Potencies of inconclusive entries are left out as doubtful fits.

Biological target: Pyruvate kinase PKM (Homo sapiens) (UniProt P14618)
Assay: qHTS Assay for Activators of Human Muscle isoform 2 Pyruvate Kinase; note: nearly all actives have a fitted effect of over 55% in size
Conditions: purified PKM2, Kinase-Glo ATP luminescence; Potency: activation; activation: at 57.5 µM (top of the series), 0% is enzyme alone, no compound
In short: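 hPK-M2, >95% pure; 0.1 mM ADP / 0.5 mM PEP final; imidazole pH7.2 buffer w/ 7 mM MgCl2, 50 mM KCl; 1 h RT; Kinase-Glo lum. Intermediate enzyme activity for dual inhibitor/activator qHTS.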
Potency is the fitted concentration of half-maximal effect; tags give direction and shape of the fitted curve.

UniProt P14618, sequence (P14618 whole entry, looked up, canonical isoform): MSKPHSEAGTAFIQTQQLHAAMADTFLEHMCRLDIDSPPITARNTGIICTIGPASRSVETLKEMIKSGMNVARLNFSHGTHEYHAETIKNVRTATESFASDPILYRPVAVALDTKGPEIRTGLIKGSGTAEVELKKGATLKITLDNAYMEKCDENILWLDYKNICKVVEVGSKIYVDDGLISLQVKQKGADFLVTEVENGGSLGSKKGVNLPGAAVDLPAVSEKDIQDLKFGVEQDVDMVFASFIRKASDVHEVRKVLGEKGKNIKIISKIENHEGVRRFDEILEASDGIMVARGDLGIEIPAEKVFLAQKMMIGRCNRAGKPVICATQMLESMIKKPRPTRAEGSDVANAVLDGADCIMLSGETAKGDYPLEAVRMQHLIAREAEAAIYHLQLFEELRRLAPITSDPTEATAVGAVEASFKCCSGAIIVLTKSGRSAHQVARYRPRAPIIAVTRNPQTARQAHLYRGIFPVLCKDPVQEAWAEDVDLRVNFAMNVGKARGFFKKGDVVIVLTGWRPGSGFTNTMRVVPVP

SMILES	Potency
CC(C)N1C/C(=C/c2ccsc2)C(=O)/C(=C/c2ccsc2)C1	inactive
CCn1c(SCC(=O)NCc2ccco2)nnc1-c1cccs1	inconclusive [rising, partial curve]
CCc1ccc(C2NC(C(=O)O)CS2)cc1 (stereo unspecified)	inactive
O=S(=O)(Nc1ccccc1N1CCCCC1)c1cccs1	inconclusive [rising, single point]
COc1ccc(-n2ccc(=O)c3c2CCCC3=O)cc1	active: 28.2 µM
COc1cc(/C=C(\C#N)C(=O)Nc2ccc3c(c2)OCCO3)ccc1O	inconclusive [rising, single point]
Cc1nnc(NC(=O)c2csc3c2CCC(C)C3)s1 (stereo unspecified)	inconclusive [rising, partial curve]
COc1ccc(-n2nnnc2-c2cnc3cc4c(cc3c2C)OCO4)cc1	inconclusive [rising, single point]
COC(=O)C1=C(C)NC(=O)CC1c1ccccc1OC (stereo unspecified)	inconclusive [rising, single point]
O=C1CCCN1CCCNC(=S)Nc1ccc(Nc2ccccc2)cc1	inactive
O=C(c1ccc(Cn2cc(Cl)c([N+](=O)[O-])n2)cc1)N1CCN(Cc2ccccc2)CC1	inconclusive [rising, single point]
CCOC(=O)CC(=O)Nc1ccsc1C(N)=O	inconclusive [rising, single point]
COC1=C(OC)C(=O)C(CCCCCCCCCCO)=C(C)C1=O	inactive
COc1ccc(C2NC3=C(CCCC3)C(C#N)(C#N)C2(C#N)C#N)cc1 (stereo unspecified)	inconclusive [rising, single point]
CCn1c(SCC(=O)N/N=C/C=C/c2ccco2)nnc1-c1ccc(OC)cc1	inconclusive [rising, single point]
CCOc1cc(/C=C2/SC(=O)N(CC(=O)N3CCc4ccccc4C3)C2=O)ccc1OCC(=O)O	inconclusive [rising, single point]
COCc1c(Br)c(C)nc(OCC(=O)N/N=C/c2ccc(C)o2)c1C#N	inconclusive [rising, single point]
Nc1ncc(-c2ccccc2)n1CC1CCCO1 (stereo unspecified)	inconclusive [rising, single point]
C[C@H](NC(=O)[C@@H]1CCC(=O)N1Cc1ccco1)c1ccccc1	inconclusive [rising, single point]
CC1(C)CC(=O)C(CC(=O)Nc2cc(C(F)(F)F)ccc2Cl)C(=O)C1	inactive
Cc1c(CCC(=O)NC2CC2)c(=O)oc2cc(O)ccc12	inconclusive [rising, single point]
O=C(O)c1cccc(-n2cccc2/C=C2/NC(=O)N(c3ccc(Cl)cc3)C2=O)c1	inconclusive [rising, single point]
O=C(Nc1c2n(c(=S)n(-c3ccccc3)c1=O)CCCCC2)c1ccccc1	inconclusive [rising, single point]
CCOc1ccc(NC(c2ccccn2)c2oc(CO)cc(=O)c2O)cc1 (stereo unspecified)	inconclusive [rising, partial curve]

SMILES	Potency
Cc1ccc(N2C(=O)C3C4C=CC(CNC(=S)N5CCN(c6cccc(C)c6)C(C)C5)(O4)C3C2=O)cc1 (stereo unspecified)	inconclusive [rising, partial curve]
C=CCN1C(=O)/C(=C2/Sc3ccccc3N2CC)SC1=S	inactive
C=CCn1c(SCc2csc(-c3ccc(C)cc3)n2)nnc1-c1ccccc1OC	inactive
O=C(/C=C/c1ccco1)N1CCCC(c2ccccc2)C1 (stereo unspecified)	inactive
C=COC(=O)CSc1snc(SCC(=O)OC)c1C#N	inconclusive [rising, partial curve]
COc1ccc(CN(C(=O)c2ccc(-c3ccccc3)[nH]2)C(C(=O)NC(C)(C)C)c2ccncc2)cc1 (stereo unspecified)	inconclusive [rising, partial curve]
N/C(CS(=O)(=O)c1ccccn1)=N\OC(=O)c1ccccc1Cl	inconclusive [rising, single point]
COc1ccc(/C=C2\C(=O)ON=C2c2cccc([N+](=O)[O-])c2)cc1	inconclusive [rising, single point]
CCCn1c(N)c(C(=O)NS(=O)(=O)c2ccc(C)cc2)c(=O)n(C)c1=O	inconclusive [rising, single point]
CCOC(=O)COc1cccc2c(=O)n(CC(N)=O)ccc12	inactive
Cc1cc(C)c2nc(-c3ccco3)cc(C(=O)O)c2c1	inconclusive [rising, single point]
CCSc1nnc(NC(=O)CSC2=NCCS2)s1	inconclusive [rising, partial curve]
Cn1c(C(=O)OCC(=O)NCc2ccco2)cc2sccc21	inconclusive [rising, partial curve]
Cc1ccc(N/C(N)=N/c2nc(C)cc(C)n2)cc1	inactive
Cc1ccc(S(=O)(=O)Nc2cc(C)c(O)c(Sc3n[nH]c(C)n3)c2)cc1	inconclusive [rising, partial curve]
CN(C(=O)CSc1nnc(N)s1)c1c(N)n(Cc2ccccc2)c(=O)[nH]c1=O	inconclusive [rising, single point]
C=CCn1c(COc2ccccc2OC)nc2ccccc21	inconclusive [rising, partial curve]
CC(=O)c1cc(C#N)c(SCC(=O)Nc2nccs2)nc1C	active: 1 µM
O=S(=O)(Nc1ccc(-c2cn3c(n2)SCC3)cc1)c1cccs1	inconclusive [rising, partial curve]
O=C(CSc1ncn[nH]1)N1CCN(S(=O)(=O)c2ccccc2)CC1	inconclusive [rising, partial curve, poor fit]
Cc1nc(-c2ccc(-n3nncc3-c3ccco3)cc2)cs1	inconclusive [rising, single point]
O=[N+]([O-])c1ccc(OCC(O)CNCCNc2nccc(C(F)(F)F)n2)cc1 (stereo unspecified)	inconclusive [rising, single point]
Cc1cc2c(cc1S(=O)(=O)N(C)c1ccccc1)n(C)c(=O)n2C	active: 12.6 µM
O=C(O)CCCCCN1C(=O)/C(=C\c2cn(-c3ccccc3)nc2-c2cccs2)SC1=S	inconclusive [rising, single point]

SMILES	Potency
Cc1ccc(-c2nnn(CC(=O)N(Cc3ccco3)C(C(=O)NC(C)(C)C)c3cccs3)n2)o1 (stereo unspecified)	inconclusive [rising, partial curve, poor fit]
O=C(CN1CCN(c2ccc(O)cc2)CC1)Nc1ccc2c(c1)OCCO2	inconclusive [rising, partial curve]
CCCCn1c(SCN2C(=O)c3ccccc3C2=O)nc2cc(S(N)(=O)=O)ccc21	active: 15.8 µM
Nc1nonc1-n1nnc(C(=O)N/N=C/c2ccccc2Cl)c1CSc1ccccc1	inconclusive [rising, partial curve]
O=C(CSCc1cccc(F)c1)NCc1ccccc1	inactive
COc1cccc(S(=O)(=O)N2CCN(C(=O)c3ccco3)CC2)c1	inconclusive [rising, single point]
O=S(=O)(Nc1nccs1)c1ccc2c(c1)OCCO2	inconclusive [rising, partial curve]
Cc1cc(C)c(C#N)c(SCc2ccccc2F)n1	inconclusive [rising, single point]
CC(/C=N/NC(=O)Cc1cccn1C)=C\c1ccco1	inconclusive [rising, single point]
CCC(=O)Nc1cc(-c2nn(C)c(=O)c3ccccc23)ccc1OC	inconclusive [rising, single point]
O=C(Cn1c(COc2ccccc2)nc2ccccc21)Nc1cc(Cl)c(Cl)cc1Cl	inconclusive [rising, partial curve]
Cc1cc(O)c(C(C)C)cc1N=C1CSC(=O)N1	inconclusive [rising, partial curve, poor fit]
COc1ccc(-c2nc(-c3ccc4c(c3)OCO4)[nH]c2-c2ccc(OC)cc2)cc1	inactive
COc1ccc(CNc2nc3ccccc3n2C(C)C)c(O)c1	inconclusive [rising, single point]
O=C(CCl)N(c1ccccc1)c1c[nH]c2ccccc12	inactive
CC1CN=C2C(C(=O)Nc3ccccc3)=C(O)CC(c3ccccc3)N21 (stereo unspecified)	inconclusive [rising, single point]
Cc1cc2c(cc1S(=O)(=O)Nc1ccc(F)cc1)n(C)c(=O)c(=O)n2C	active: 2.51 µM
Cc1ccc(NC(=O)C2C3CCCC2C3c2ccccc2)cc1 (stereo unspecified)	inconclusive [rising, full curve]
O=C(NCCc1cccc(Cl)c1)c1ccc(OC2CCN(Cc3ccccn3)CC2)cc1	inactive
CCOc1cc(/C=N\Nc2nc(-c3ccc(C)cc3)c(NC(C)=O)s2)ccc1O	inconclusive [rising, single point]
N#Cc1nc(Cc2cccc3ccccc23)oc1NCCCn1ccnc1	inconclusive [rising, partial curve, poor fit]
CC(=O)Nc1ccc(NC(C)=O)s1	inconclusive [rising, single point]
COc1ccc(C/C(O)=C(\C#N)c2nc3ccccc3[nH]2)cc1OC	inconclusive [rising, single point]
